# PubChem BioAssay AID1460 (National Center for Advancing Translational Sciences (NCATS), 2008)
# About 5,800 (2.1%) of roughly 270,000 compounds were called active. Inconclusive means that the source gave no clear call. Such entries were picked first, then a sample of the others. Calls follow the shape of the dose curve; as a rule, active = well fitted inhibition curve with a large enough effect; inconclusive = small, poorly fitted or top-dose-only effect; inactive = flat fitted curve, though single readings scatter. A potency beside an inconclusive call is a rough fit, not a confirmed value.
# Target: Microtubule-associated protein tau (Homo sapiens) (UniProt P10636)
# Chain of UniProt P10636 (P10636 whole entry, looked up): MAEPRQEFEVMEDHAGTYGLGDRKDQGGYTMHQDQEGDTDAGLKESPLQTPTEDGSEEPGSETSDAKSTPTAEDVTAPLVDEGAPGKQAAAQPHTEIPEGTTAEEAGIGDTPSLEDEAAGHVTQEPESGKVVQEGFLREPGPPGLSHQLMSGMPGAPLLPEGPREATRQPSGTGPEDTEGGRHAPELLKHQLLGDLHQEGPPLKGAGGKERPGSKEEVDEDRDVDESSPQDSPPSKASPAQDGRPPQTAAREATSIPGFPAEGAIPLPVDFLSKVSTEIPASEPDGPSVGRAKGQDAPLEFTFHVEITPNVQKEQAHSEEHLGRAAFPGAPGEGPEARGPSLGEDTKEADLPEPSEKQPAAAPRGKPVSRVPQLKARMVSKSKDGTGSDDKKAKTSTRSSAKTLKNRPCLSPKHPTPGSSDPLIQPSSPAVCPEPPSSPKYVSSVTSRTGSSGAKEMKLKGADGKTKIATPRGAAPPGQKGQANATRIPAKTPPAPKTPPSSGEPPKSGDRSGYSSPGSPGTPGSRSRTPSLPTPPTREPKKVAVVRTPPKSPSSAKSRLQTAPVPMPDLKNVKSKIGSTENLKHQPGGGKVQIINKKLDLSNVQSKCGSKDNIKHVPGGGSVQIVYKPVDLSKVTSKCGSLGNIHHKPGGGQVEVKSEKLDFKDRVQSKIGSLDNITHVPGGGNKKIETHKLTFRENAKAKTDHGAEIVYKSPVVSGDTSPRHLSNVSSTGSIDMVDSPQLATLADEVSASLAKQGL
# Assay: qHTS for Inhibitors of Tau Fibril Formation, Thioflavin T Binding; also: nearly all actives have a fitted effect of over 55% in size
# Conditions: recombinant tau K18 P301L (four-repeat tau fragment), heparin-induced fibrillization, ThT fluorescence; series mostly up to 57.4 µM
# Procedure, shortened: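 Heparin-induced (20 uM) aggregation of recombinant human K18 P301L tau, 15 uM unlabeled with 0.24 uM labeled, pH 7 acetate buffer, 6 hr at 37 C with compound. Fibrils quantified by 30 uM ThT fluorescence after 1 hr ambient incubation.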
# Potency is read from the fitted curve at half-maximal effect; tags tell the direction and shape of the fitted curve.
row,Compound,Potency
1,CCN1C(=O)c2cccc3c(S(=O)(=O)N(C(=O)c4cccnc4)c4ccc(OC)cc4)ccc1c23,"inconclusive: 20 µM [inhibitor, partial curve]"
2,O=C(CNC1=NCCC1)c1ccc(Cl)cc1,inactive
3,O=C(COC(=O)c1c2c(nc3ccccc13)/C(=C\c1cccs1)CCC2)Nc1ccccc1Cl,"inconclusive: 3.98 µM [inhibitor, full curve, poor fit]"
4,Clc1cccc(-n2ncc3c(N4CCN(Cc5ccccc5)CC4)ncnc32)c1,inactive
5,O=C(CSc1nc2ccccc2c(=O)[nH]1)c1ccccc1,inactive
6,O=C(N/N=C\C=C\c1ccc2c(c1)OCO2)C1COc2ccccc2O1 (configuration not stated),"inconclusive: 17.8 µM [inhibitor, single point]"
7,Nc1ncnc2c1ncn2[C@H]1O[C@@H](CSCC[C@@H](N)C(=O)O)[C@H](O)[C@@H]1O,"inconclusive: 0.126 µM [inhibitor, full curve, poor fit]"
8,CCOC(=O)C(C(=O)Nc1ccc(C)cc1)C1CCCCC1 (configuration not stated),inactive
9,CCCC(=O)c1ccc(N2CCCC2)c(F)c1,"inconclusive: 15.8 µM [inhibitor, partial curve, poor fit]"
10,CCN(CC)S(=O)(=O)c1cccc(NC(=O)/C=C/c2cccc([N+](=O)[O-])c2)c1,"inconclusive: 15.8 µM [inhibitor, partial curve]"
11,C=CCc1c(C)nc2nc(SCC(=O)Nc3ccc(OCC)cc3)nn2c1C,inactive
12,COc1ccc(-c2nc3cnccn3c2Nc2ccc3c(c2)OCO3)cc1,"inconclusive: 11.2 µM [inhibitor, partial curve]"
13,Cc1[nH]c2ccccc2c1CCNC(=O)c1ccc2c(c1[N+](=O)[O-])C(=O)c1ccccc1C2=O,"inconclusive: 2.24 µM [inhibitor, full curve]"
14,Cc1cccnc1NC(=O)c1cc2ccccc2oc1=O,"inconclusive: 7.08 µM [inhibitor, partial curve]"
15,CCc1ccc(NC(=O)CSc2nnc(-c3cc4occc4n3C)n2-c2ccccc2C)cc1,inactive
16,Cn1c(=O)c2c(-c3ccccc3Br)n(CCc3ccccc3)cc2n(C)c1=O,"inconclusive: 28.2 µM [inhibitor, single point]"
17,CCCCOc1ccc(C2=NC(c3ccccc3)=Nc3ccc(OC)cc3N2)cc1,"inconclusive: 35.5 µM [inhibitor, single point]"
18,COc1ccc(CCC(=O)NCc2ccc3c(c2)CCN3C(=O)c2ccc(C)cc2)cc1,"inconclusive: 12.6 µM [inhibitor, single point]"
19,COc1ccc(/C=N/NC(=O)C(N)=O)c(OC)c1OC,"inconclusive: 12.6 µM [inhibitor, partial curve]"
20,O=C(COc1ccc(/C=N/NC(=O)c2ccc(O)cc2)cc1)Nc1cccc([N+](=O)[O-])c1,"inconclusive: 0.447 µM [inhibitor, full curve]"
21,N#Cc1c2c(c(=S)n(-c3ccccc3)c1N)CCCC2,"inconclusive: 15.8 µM [inhibitor, single point]"
22,COc1ccc(Nc2nc(N)nc(CSC(=S)N3CCCCC3)n2)cc1,inactive
23,C/C(=N\NC(=O)c1c(Br)c(C)nn1C)c1ccc(NC(=O)c2ccoc2C)cc1,"inconclusive: 1 µM [inhibitor, full curve]"
24,CCC(C)n1c(SCC(=O)Nc2ccccc2C(F)(F)F)nc2ccsc2c1=O (configuration not stated),"inconclusive: 8.91 µM [inhibitor, partial curve, poor fit]"

row,Compound,Potency
1,CCOC(=O)c1ccc(NC(=O)CSc2nc3ncccc3[nH]2)cc1,"inconclusive: 3.55 µM [inhibitor, full curve, poor fit]"
2,COc1ccc(CCNc2nc(=S)[nH]c3cc(OC)c(OC)cc23)cc1OC,"inconclusive: 3.98 µM [activator, single point]"
3,Cc1cc(C)n(CCOc2nonc2N)n1,"inconclusive: 17.8 µM [inhibitor, partial curve]"
4,CCc1ccc(NC(=O)CCn2cnc3ccccc3c2=O)cc1,inactive
5,O=C(c1cccnc1)N1N=C2CCCCCC2C1(O)C(F)(F)F (configuration not stated),inactive
6,COc1ccc(CN2C(=O)C(NC(=O)c3ccccc3OC)(C(F)(F)F)N=C2c2ccccc2)cc1 (configuration not stated),inactive
7,CCc1nc(Nc2ccc3c(c2)OCO3)c2oc3ccccc3c2n1,"inconclusive: 28.2 µM [inhibitor, single point]"
8,CC(=O)N1CCc2c(sc3c2c(=O)n(Cc2ccccc2)c(=O)n3CC(=O)Nc2ccc(C)c(F)c2)C1,"inconclusive: 1 µM [activator, full curve]"
9,COc1ccc(N2Cc3cccc(C(=O)NC(C)CCc4ccco4)c3C2=O)cc1 (configuration not stated),"inconclusive: 15.8 µM [inhibitor, partial curve]"
10,CC(C)(C)c1ccc(C(=O)Nc2ncn[nH]2)cc1,inactive
11,c1ccc2c(c1)ncn2Cc1nnc2sc(-c3ccncc3)nn12,inactive
12,Cc1cccc(OCC(=O)Nc2ccc3nc(Nc4cccc(Cl)c4)cc(C)c3c2)c1,"inconclusive: 2.82 µM [inhibitor, partial curve]"
13,O=C(O)Cc1cc2ccccc2nc1C(=O)O,inactive
14,CCc1nnc(NC(=O)CSc2nnc(C3CCCCC3)n2-c2cccc(Cl)c2)s1,inactive
15,CC(C)CCn1c(NCCc2ccccc2)nc2c1c(=O)n(C)c(=O)n2C,"inconclusive: 8.91 µM [activator, single point]"
16,Oc1c(Cl)cccc1C=Nc1cc(C(F)(F)F)ccc1N1CCCC1,"inconclusive: 22.4 µM [inhibitor, partial curve, poor fit]"
17,CSc1ccc(Cl)c(C(=O)OCC(=O)NCc2ccco2)c1,"inconclusive: 25.1 µM [inhibitor, partial curve]"
18,COc1ccc(Cl)cc1C(=O)Nc1ccc2c(c1)OCO2,"inconclusive: 17.8 µM [inhibitor, partial curve]"
19,O=C(NCc1ccco1)c1cc2c(s1)CSC2,active: 28.2 µM
20,Cc1ccc(-c2nnc(OCc3cccnc3)c3ccccc23)cc1,"inconclusive: 39.8 µM [inhibitor, partial curve]"
21,Cc1ccsc1/C=C1\SC(N)=NC1=O,"inconclusive: 25.1 µM [inhibitor, partial curve]"
22,O=C(NC1CCCC1)c1ccc([N+](=O)[O-])s1,inactive
23,Cc1ccccc1OCC(=O)NN1CCN(C)CC1,inactive
24,CC(C)c1ccc(OCc2cc(=O)n3c(-c4ccccc4)csc3n2)cc1,inactive

row,Compound,Potency
1,Cc1ccc(-n2c(C)cc(/C=C3\NC(=O)NC3=O)c2C)c(C)c1,"inconclusive: 20 µM [inhibitor, partial curve]"
2,Cc1ccc(O)c(C(=O)c2cc(C(=O)NCCc3ccccc3)c(=O)n(CCc3ccccc3)c2)c1,inactive
3,Cc1cc([N+](=O)[O-])ccc1NC(=O)c1ccc(NC(=O)C(C)C)cc1,"inconclusive: 25.1 µM [inhibitor, single point]"
4,CCCCNC(=O)C(CC)Sc1nc2ccccc2c(=O)n1CCc1ccc(OC)c(OC)c1 (configuration not stated),inactive
5,Cc1ccc(Cn2cc(CCC(=O)NCc3ccc(OC(C)C)cc3)c3ccccc32)cc1,inactive
6,C#CCSc1nnc(CSc2nc3ccccc3s2)n1-c1ccccc1,inactive
7,C/C(=N\Nc1ccc(Cl)c(Cl)c1)c1ccc(-n2ccnc2)cc1,"inconclusive: 14.1 µM [inhibitor, partial curve]"
8,CCOC(=O)c1ccc(NC(=S)NNC(=O)COC)cc1,inactive
9,COc1ccc(/C=N/Nc2ncnc3sc4c(c23)CCCC4)cc1OC,"inconclusive: 6.31 µM [inhibitor, full curve]"
10,COc1ccccc1NCC(=O)N/N=C/c1cccnc1,inactive
11,COc1ccc(C(=O)Nc2ccc3nc(C)sc3c2)cc1OC,"inconclusive: 2.51 µM [inhibitor, full curve]"
12,COc1ccc(/C=C/C2=CC(C)(C)NC(=S)N2)cc1OC,"inconclusive: 20 µM [inhibitor, partial curve]"
13,Cc1ccc(C(=O)COc2cccc(NC(=O)c3ccco3)c2)cc1,"inconclusive: 2.24 µM [inhibitor, full curve]"
14,O=C(N/N=C/c1cccc(C(F)(F)F)c1)c1ccccc1O,"inconclusive: 39.8 µM [inhibitor, single point]"
15,c1ccc(OCCn2c(COc3ccccc3)nc3ccccc32)cc1,"inconclusive: 22.4 µM [inhibitor, single point]"
16,CC1=NN(c2ccccc2)C(=O)C1C(=O)C(=O)Nc1ccc(F)cc1 (configuration not stated),"inconclusive: 17.8 µM [inhibitor, partial curve]"
17,Nc1sc(-c2ccccc2)cc1-c1n[nH]c(=S)n1C1CCCCC1,"inconclusive: 44.7 µM [inhibitor, single point]"
18,O=C(c1ccc2c(c1)N(Cc1cccc(Cl)c1)C(=O)c1ccccc1S2)N1CCOCC1,inactive
19,O=C1/C(=C/c2c[nH]c3ccccc23)CCC/C1=C\c1c[nH]c2ccccc12,"inconclusive: 2 µM [inhibitor, full curve]"
20,Fc1ccc(-c2noc(-c3ccc4c(c3)CCO4)n2)cc1,"inconclusive: 1.12 µM [inhibitor, full curve, poor fit]"
21,c1ccc(-c2ncc3c(ccc4ccccc43)n2)cc1,"inconclusive: 0.794 µM [inhibitor, full curve, poor fit]"
22,COc1ccc(C)cc1NC(=O)c1ccc2c(c1)nnn2C1CCCC1,"inconclusive: 28.2 µM [inhibitor, single point]"
23,S=C(NCc1cccs1)Nc1ccccc1Cl,inactive
24,COc1ccccc1C(=O)Nc1ccc(OCc2cc(=O)n3cc(C)sc3n2)cc1,"inconclusive: 2 µM [inhibitor, partial curve, poor fit]"
